In ChEMBL document CHEMBL1201862, “PubChem BioAssay data set” (2004):
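Growth conditions: 96-well plates. Treatment: test compound, 48 hours, 5 concentrations. Analysis: linear interpolation between bracketing concentrations; unreached endpoints set to highest concentration. Here, GI50 denotes the concentration required for 50% inhibition of growth.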 Activity calls are given as the source filed them. Rule as the data show it: active = GI50 up to about 1.1 µM and inactive = higher. Square brackets hold non-standard residues; d marks the D form. Peptide text beside a SMILES is read from it. * marks the point of attachment. Phe(4-NO2) = N[CH](Cc1ccc([N+](=O)[O-])cc1)C(=O)O; Boc = CC(C)(C)OC(=O)*; OBn = c1ccc(CO*)cc1

These molecules were tested on NCI-H322M (assay: DTP human tumour cell line panel, 48 h).
In the case of `CCOC1OC(CO[Si](C)(C)C(C)(C)C)C(O)CC1n1ccc(=O)[nH]c1=O` (centres undefined), the GI50 is reported as inactive: > 100 µM.
With `COc1cc2c(cc1OC)[C@H](C)N1CCc3cc(OC)c(OC)cc3[C@@H]1C2` the GI50 was inactive: > 100 µM.
`CS/C(=N/C(=O)c1ccccc1Cl)SCCS/C(=N\C(=O)c1ccccc1Cl)SC` was tested, and the GI50 was inactive: > 100 µM.
In the case of `O=C(CCl)Nc1cc(Cl)c(Cl)cc1Cl`, the GI50 is reported as inactive: 1.98 µM.
With `O=C1CSC(c2ccccc2)N1c1nc2cc3sc(N4C(=O)CSC4c4ccccc4)nc3cc2s1` (centres undefined) the GI50 was inactive: 30.2 µM.
With `NC(=O)c1cccc(C2OC(COP(=O)(O)O)C(O)C2O)c1` (centres undefined) the GI50 was inactive: > 50 µM.
`COC(=O)C1c2cc3c(cc2C(OC2OC(C)C(OC)C(C)(OC)C2OC)CC1(C)O)C(=O)c1c(O)cc2c(c1C3=O)OC1OC2(C)C(O)C([N+](C)(C)[O-])C1O` (centres undefined) was tested, and the GI50 was active: 0.137 µM.
With `CC(=O)CCC1(c2ccccc2)OC(=O)C(C#N)=C1c1ccccc1` (centres undefined) the GI50 was inactive: > 100 µM.
With `O=C(O)C12CCCC(CCC1)C2` the GI50 was inactive: > 100 µM.
For `CC[N+]1(C)CCC(O)(/C=C/c2ccccc2)C(C(=O)/C=C/c2ccccc2)C1` (centres undefined), the GI50 was inactive: 18.5 µM.
In the case of `CC12CCC[C@@](C)(C(=O)OC3OC(CO)C(O)C(O)C3O)[C@H]1CCC13CC4CC(OC4(CO)[C@H]1O)[C@@H]23` (some centres undefined), the GI50 is reported as inactive: > 100 µM.
`O=S1(=O)c2ccccc2C(Nc2ccccc2)N1c1ccccc1` (centres undefined) was tested, and the GI50 was inactive: > 100 µM.
`COC(=O)C1Cc2c([nH]c3ccccc23)[C@H](CC(C)C)N1` (some centres undefined) was tested, and the GI50 was inactive: > 100 µM.
`CC(=O)OCc1ccc2oc(=O)c(C(=O)Oc3ccccc3)cc2c1` was tested, and the GI50 was inactive: > 100 µM.
For `COC1(OC)CCC2C1C1CCC(OC)(OC)C21` (centres undefined), the GI50 was inactive: > 50 µM.
With `Nc1ncn(C/C=C/c2ccccc2)c2ncnc1-2` the GI50 was inactive: > 100 µM.
`NC(=O)c1nnsc1N/N=C/c1ccc([N+](=O)[O-])cc1` was tested, and the GI50 was inactive: 94 µM.
In the case of `CC(=O)O[C@@H]1C[C@@]23C[C@@]24CC[C@H](OC2OCC(O)C(O)C2O)C(C)(C)[C@@H]4CC=C3[C@]2(C)C[C@@H]3OC4(C[C@@H](C)[C@@H]3[C@@]12C)OC(O)[C@@]1(C)O[C@@H]41` (some centres undefined), the GI50 is reported as inactive: 61.1 µM.
In the case of `COc1ccc([C@H]2CC(=O)C[C@H](c3ccc(OC)cc3OC)C23C(=O)c2ccccc2C3=O)c(OC)c1`, the GI50 is reported as inactive: > 100 µM.
In the case of `CCCCCC(=O)OC[n+]1ccc2c(C)c3[nH]c4ccc(OC)cc4c3c(C)c2c1`, the GI50 is reported as active: 0.252 µM.
For `O=C/C(=C(/Br)I)c1ccccc1`, the GI50 was inactive: 15.4 µM.
`Cc1ccc(O)cc1.Cc1cccc(O)c1.Cc1ccccc1O` [CRESOL] was tested, and the GI50 was inactive: > 100 µM.
In the case of `C[C@]12CC[C@H](O)C[C@H]1CC[C@@H]1[C@@H]2CC[C@]2(C)[C@@H](C3=CC(=O)OC3)CC[C@]12O` [DIGITOXIGENIN], the GI50 is reported as active: 0.169 µM.
In the case of `COc1ccc(C=C(c2ccc(OCc3ccccc3)cc2)c2ccc(OCc3ccccc3)cc2)cc1`, the GI50 is reported as inactive: > 100 µM.
With `O=C1C=CC(=O)C(CNc2ccc(C(=O)OC34CC5CC(CC(C5)C3)C4)cc2)=C1Br` the GI50 was inactive: 15.1 µM.
`O=C1CC(CC(O)C(O)CO)CC(=O)N1` (centres undefined) was tested, and the GI50 was inactive: > 100 µM.
`Cc1cn(C2CCC(CO)(CF)O2)c(=O)[nH]c1=O` (centres undefined) was tested, and the GI50 was inactive: > 100 µM.
With `CCOC(=O)CNC1=Nc2ccccc2C(=O)N2CSCC12` (centres undefined) the GI50 was inactive: > 100 µM.
For `Cc1cccc(C)c1NC(=O)C(=O)CC(=O)CO`, the GI50 was inactive: > 100 µM.
`C=CCNC(NCC=C)=C(C(Cl)=C(Cl)Cl)[N+](=O)[O-]` was tested, and the GI50 was inactive: > 100 µM.
`COc1ccc(C(=O)C#Cc2cn(C3CC(O)C(CO)O3)c(=O)[nH]c2=O)cc1` (centres undefined) was tested, and the GI50 was inactive: > 100 µM.
`O=C1CCCC1C(O)(C(F)(F)F)C(F)(F)F` (centres undefined) was tested, and the GI50 was inactive: > 100 µM.
`COc1cc([C@@H]2c3cc(O)c(OC)cc3C=C(C(N)=O)[C@H]2C(N)=O)ccc1O` was tested, and the GI50 was inactive: > 100 µM.
For `CCOC(=O)C(=O)C(=O)NN(C)C1=NCCN1`, the GI50 was inactive: > 100 µM.
With `COC(=O)/C=C/COCC1C2CCC(=O)C21` (centres undefined) the GI50 was inactive: > 100 µM.
For `CC1=C(C#N)C(C#N)(C#N)C(NN(C)C)C1` (centres undefined), the GI50 was inactive: 37.2 µM.
With `COC(=O)[C@@H](NC(=O)c1ccc(CNC(=O)/C(C)=C/c2ccccc2)cc1)C(C)C` the GI50 was inactive: 71.9 µM.
For `COC(=O)CCC(NC(=O)OC(C)(C)C)C(=O)NC(Cc1ccc([N+](=O)[O-])cc1)C(=O)NCC(=O)OCc1ccccc1` (centres undefined) (Boc-Glu(OMe)-[Phe(4-NO2)]-Gly-OBn; configuration not given here), the GI50 was inactive: 42.8 µM.
For `CNC(=O)N(C)/N=N/CCCl`, the GI50 was inactive: > 100 µM.
`OC1(c2ccccc2)CCCCCCCCC(O)(c2ccccc2)CCCCCCCC1` (centres undefined) was tested, and the GI50 was inactive: > 100 µM.
In the case of `COc1cc(-c2c[nH]c3ccccc23)nc(-c2c[nH]c3ccccc23)n1`, the GI50 is reported as inactive: 6.92 µM.
For `O=c1[nH]/c(=C/c2ccc(OCc3ccccc3)cn2)c(=O)[nH]/c1=C/c1ccc(F)cc1`, the GI50 was active: 1.06 µM.
`Cc1cc(S(=O)(=O)/N=C(\NN)NCC(=O)NN)c(S)cc1Cl` was tested, and the GI50 was inactive: > 10 µM.
In the case of `Cn1c(=O)[nH]c2nncnc2c1=O`, the GI50 is reported as inactive: 284 µM.
With `CC(=O)Oc1ccc(C2COc3cc(OC(C)=O)c(OC(C)=O)cc3C2)cc1` (centres undefined) the GI50 was inactive: 25.8 µM.
For `CCN(CC)CC1CCCCN1CC(=O)N1CC(C)C(=O)Nc2ccccc21` (centres undefined), the GI50 was inactive: > 100 µM.
`CC(C)(NC(=O)OCc1ccccc1)C(=O)NC(Cc1ccccc1)C(=O)O` (centres undefined) (HELM PEPTIDE1{[O=C(OCc1ccccc1)[*:2]].[Aib].[O=C(O)C(Cc1ccccc1)N[*:1]]}$$$$V2.0) was tested, and the GI50 was inactive: > 100 µM.
`COc1c(C)c2c(c(C)c1Cl)Oc1c(C=O)c(O)c(Cl)c(C)c1C(=O)O2` was tested, and the GI50 was inactive: 33 µM.
For `Cn1nc(-c2ccccc2)nc1[N+](=O)[O-]`, the GI50 was inactive: > 10 µM.
With `CCOC(=O)c1cn2c([nH]c3ccccc32)c(C#N)c1=O` the GI50 was inactive: > 100 µM.
`COc1ccc(C(=O)c2[nH]c(Nc3ccc(Cl)cc3)c(C(=S)Nc3ccccc3)c2N)cc1` was tested, and the GI50 was inactive: > 100 µM.
In the case of `CC(=O)Nc1ccc(N2C(=O)/C(=C\c3cccc(Oc4ccccc4)c3)SC2c2ccccc2)cc1` (centres undefined), the GI50 is reported as inactive: 39.5 µM.
In the case of `O=C(/C=C1\N=C(c2ccccc2)N(c2nc3ccc(Sc4ccccc4)cc3[nH]2)C1=O)/C=C/c1ccccc1`, the GI50 is reported as inactive: 51.1 µM.
With `Oc1ccc2ccccc2c1-c1c(Nc2ccccc2)ccc2ccccc12` the GI50 was inactive: 14.6 µM.
`CCOC(OC1=C(C#N)CCCC1)C(CC)[Se]c1ccccc1[N+](=O)[O-]` (centres undefined) was tested, and the GI50 was inactive: > 100 µM.
For `CCCCCCCCCCCCCCCCCc1nc(Cl)nc(Cl)c1Cl`, the GI50 was inactive: > 100 µM.
In the case of `CO[C@@H](c1ccccc1)[C@H](O)[C@@](O)(c1ccccc1)P(=O)(OC)OC`, the GI50 is reported as inactive: > 100 µM.
In the case of `CC(C)(C)C(=O)/C=C(\OB(F)F)C(C)(C)C`, the GI50 is reported as inactive: > 100 µM.
With `O=C(n1c2ccccc2c2nnc(S)nc21)C(F)(F)F` the GI50 was inactive: > 100 µM.
`CC1(C)CC(=O)C2=C(C1)NC1=C(C2)C(=O)CC(C)(C)C1` was tested, and the GI50 was inactive: > 100 µM.
For `CCOP(=O)(CN1CCNCCNCC1)OCC`, the GI50 was inactive: > 100 µM.
In the case of `CCCCCCCCCCCCC(O)C1CCC(C(O)CCCCC(O)CCCCCC2CC(CC(C)=O)C(=O)O2)O1` (centres undefined), the GI50 is reported as inactive: 9.1 µM.
In the case of `CC(CO)CCNc1ncnc2c1ncn2CCC#N` (centres undefined), the GI50 is reported as inactive: > 100 µM.
With `O=C(NC(=O)c1cc2cc(Br)cc(Br)c2oc1=O)Oc1ccccc1` the GI50 was inactive: > 100 µM.
